In the experiment the test system is CHLA-20 cells with ALK R1275Q/L1196M (CRISPR, in cis). Nature of the experiment: Cell viability assay (Cell Titer-Glo, 120 h). Format: cell-based, human. Conditions: cell viability after 120 h of treatment.

For the compound `C[C@H]1Oc2cc(cnc2N)-c2c(nn(C)c2C#N)CN(C)C(=O)c2ccc(F)cc21` [lorlatinib, (10R)-7-amino-12-fluoro-2,10,16-trimethyl-15-oxo-10,15,16,17-tetrahydro-2H-8,4-(metheno)pyrazolo[4,3-h][2,5,11]-benzoxadiazacyclotetradecine-3-carbonitrile], the IC50 (usually the concentration at which inhibition is half-maximal) amounted to 277 ± 57 nM.
